Measured values published in the RNAGym collection of RNA variant scans (doi:10.7554/elife.90254).
The source gives no read counts; variants with many changes may rest on few reads.

B1: LINE1-mini (parent)
chain: GGCAGAGCUCAACACAGCGUGGCAAAGUGGCUGUGGCUAGACUGCC

Variants of: B1
Assay: self-cleavage, relative activity (ratio to wild type); higher = more cleavage; in vitro, sequencing; the parent is a self-cleaving ribozyme

**Q.** With GGCCGAGCUCAACACAGCGUGGGAAAGUGGCUGUUGCUAAAGUGCC [A4C C23G G35U G40A C42G] as the variant, how does the self-cleavage read?
**A.** 0.08

**Q.** With GGCCGAGCUCAACACAGCGUGGCAAAGUGGUUGUGGCUAGACUUCC [A4C C31U G44U] as the variant, how does the self-cleavage read?
**A.** 0.05

**Q.** With GGCCGAGCUCAACACAGCGUGGCAAAGUGGUUGUGGCUAGACUCCC [A4C C31U G44C] as the variant, how does the self-cleavage read?
**A.** 0

**Q.** With GGCCGAGCUCAACACAGCAUGGCAAAGUGUCUGUGGCUAGACUGCC [A4C G19A G30U] as the variant, how does the self-cleavage read?
**A.** 0.74

**Q.** With GGCCGAGCUCAACACAGCGUUGCCAAGUGGCUGUGGCUAGACCGCC [A4C G21U A24C U43C] as the variant, how does the self-cleavage read?
**A.** 0.05

**Q.** Which self-cleavage does the source give for GGCCUAGCUCAACACAGCGUGGCAAAGUGGCUGUGGGUAGACUGCC [A4C G5U C37G] here?
**A.** 0.06

**Q.** With GGCCGAGCUCAACACAGCGUGGAAAAGUAGCUGUGGCUAGACUGCC [A4C C23A G29A] as the variant, how does the self-cleavage read?
**A.** 0.18

**Q.** Which self-cleavage does the source give for GGCCUGGCUCAACACAGCGUGGCAAAGUGGCUGUGGAUAGACAGCC [A4C G5U A6G C37A U43A] here?
**A.** 0.14

**Q.** Which self-cleavage does the source give for GGCCGAGCUCAACACAGCGUGCCAAAGUGGCCGUGGCUAGACUUCC [A4C G22C U32C G44U] here?
**A.** 0.04

**Q.** For GGCCGAGCUCAACACAGCGUGGAUAAGUGGCUGUGACUAUACUGCC [A4C C23A A24U G36A G40U], which self-cleavage is on record?
**A.** 0.5

**Q.** For GGCCAAGCUCAACACAGCGAGGCAAAGUGGCUGUGGCAAGACAGCC [A4C G5A U20A U38A U43A], which self-cleavage is on record?
**A.** 0

**Q.** Which self-cleavage does the source give for GGCCGAAGUCAACACAGCGUGGCAAAGUGGCUGUGGCUAGACUGCC [A4C G7A C8G] here?
**A.** 0.11

**Q.** For GGCCGAACUCAACACAGCGUGGCAAUGUGGCUGUGUCUAGACUGCC [A4C G7A A26U G36U], which self-cleavage is on record?
**A.** 0.22

**Q.** With GGCCGAGCUCAACACAGCGUGGCAAAGUGGUUGUGGCUCGAUUUCC [A4C C31U A39C C42U G44U] as the variant, how does the self-cleavage read?
**A.** 0.01

**Q.** For GGCCGAGCUCAACACAACGUUGCAAAGUGGCUGUGGCUAGACUGCC [A4C G17A G21U], which self-cleavage is on record?
**A.** 0.18

**Q.** For GGCCGAGCUCAACACAGCGUGGAAAAGUAGCAGUGGCUAGACUGGC [A4C C23A G29A U32A C45G], which self-cleavage is on record?
**A.** 0.04

**Q.** Which self-cleavage does the source give for GGCCGAGCUCAACACAGCAUGGCAAAGUGGCUGUGGAAAGACUGGC [A4C G19A C37A U38A C45G] here?
**A.** 0.05

**Q.** For GGCCUAGCUCAUCACUGCGUGGCAAAGUGGCUGUGGCUAGACUGCU [A4C G5U A12U A16U C46U], which self-cleavage is on record?
**A.** 0.03

**Q.** Which self-cleavage does the source give for GGCCUAGCUCAUCACAGCGUGGCAAAGUUGCUGUGGCAAGACUGCC [A4C G5U A12U G29U U38A] here?
**A.** 0.86

**Q.** Which self-cleavage does the source give for GGCCGAGCUCAACACAUCGUGGCAAAGUGGCUGUGGCUAGAAAGCC [A4C G17U C42A U43A] here?
**A.** 0.1

**Q.** For GGCCGAGCUCAACACAGCCUGGCACAGUCGCUGUGGCUAGACUGCC [A4C G19C A25C G29C], which self-cleavage is on record?
**A.** 0.02

**Q.** With GGCCCAGCUCAACACAACGUGGCAAAGUCGCUGUAGCUAGACUGCC [A4C G5C G17A G29C G35A] as the variant, how does the self-cleavage read?
**A.** 0.41

**Q.** For GGCCUAUCUCAACAAAGCGUGGCAAAGUCGCUGUGGCUAGACUGCC [A4C G5U G7U C15A G29C], which self-cleavage is on record?
**A.** 0.95

**Q.** Which self-cleavage does the source give for GGCCGAGCUCAACACAGCGUGGCAAAGUGGCUGUGGAUCGACUGCC [A4C C37A A39C] here?
**A.** 0.19

**Q.** Which self-cleavage does the source give for GGCCGAGCUCAACACAUCGUGGCAAAGGGUCUUUGGCUAGACUGCC [A4C G17U U28G G30U G33U] here?
**A.** 0.06

**Q.** With GGCCGAGCUCAACACAGUGUGGCAAAGUGGCUGUUGCUAGACUGCC [A4C C18U G35U] as the variant, how does the self-cleavage read?
**A.** 0.09

**Q.** With GGCCGAGCUCAACACAGCGUGACAAAGUGCCUGUGGCUAGACUGCC [A4C G22A G30C] as the variant, how does the self-cleavage read?
**A.** 0.17

**Q.** Which self-cleavage does the source give for GGCCGAGCUCAACACAGCGUGACAAAGUGGCUGAGGCUAGACUGCC [A4C G22A U34A] here?
**A.** 0.03

**Q.** With GGCCUAUCUCACCACAGCGUGGCAAAGUGUCUGUGGCUAGACUGCC [A4C G5U G7U A12C G30U] as the variant, how does the self-cleavage read?
**A.** 0.06

**Q.** With GGCCGAGCUCAACACAACAUGGCAAAGUGGCUGUGGCUAGACUGCC [A4C G17A G19A] as the variant, how does the self-cleavage read?
**A.** 0.27

**Q.** For GGCCGAGCUCAACACAGCGUCGCAAAGUGGCUGUGGCUAGACUCCC [A4C G21C G44C], which self-cleavage is on record?
**A.** 0.08

**Q.** Which self-cleavage does the source give for GGCCGAGCUCAACACAGCCCGGCACAGUGGCUGUGUCUAGACUGCC [A4C G19C U20C A25C G36U] here?
**A.** 0

**Q.** Which self-cleavage does the source give for GGCCGAGCUCAACACAGCCUGGCAAAUUGGCUGUGGCUAGACUGUC [A4C G19C G27U C45U] here?
**A.** 0.05

**Q.** Which self-cleavage does the source give for GGCCAAGCUGAACACAGCGUGGAAAAGUGGUUGUGGCUGGACUACC [A4C G5A C10G C23A C31U A39G G44A] here?
**A.** 0.01

**Q.** With GGCCGAGCUCAACACAGCGUGGCAAACUGGCUGUGGCUAGACUGUC [A4C G27C C45U] as the variant, how does the self-cleavage read?
**A.** 0.11

**Q.** Which self-cleavage does the source give for GGCCGAGCUCAACACAGCAUGGCAACGUGUCUGUCGCUAGACUACC [A4C G19A A26C G30U G35C G44A] here?
**A.** 0.04

**Q.** With GGCCGAGCUCAACACAGCGUGGCAAAAUGGCUAUGGCUAGACUGCC [A4C G27A G33A] as the variant, how does the self-cleavage read?
**A.** 0.19

**Q.** Which self-cleavage does the source give for GGCCGAGCUCAACACAGCGUGGCAAAAUGGCUUUGGCUAGACUGCC [A4C G27A G33U] here?
**A.** 0.02

**Q.** With GGCCGAGCUCAACACAACGUGGCAAAGUGGCUGUGGCUAGACGGCC [A4C G17A U43G] as the variant, how does the self-cleavage read?
**A.** 0

**Q.** With GGCCGACCUCAACACAGCUUGUCAAAGCGGCUGUGGCUAGACGGAC [A4C G7C G19U G22U U28C U43G C45A] as the variant, how does the self-cleavage read?
**A.** 0.01

**Q.** For GGCCGAACUCAACACAGCGUGGCAAAGUGGCCGUGGCUAGACUGCC [A4C G7A U32C], which self-cleavage is on record?
**A.** 0.3

**Q.** With GGCCGAUCUCAACACAGCGUGGCAAAGUGCCUGUGGCUAAACUGCC [A4C G7U G30C G40A] as the variant, how does the self-cleavage read?
**A.** 0.05

**Q.** Which self-cleavage does the source give for GGCCCAGCUCAACACAGCGUGGCAAAGUGGCUGUGGCUACACUGCC [A4C G5C G40C] here?
**A.** 0.03

**Q.** Which self-cleavage does the source give for GGCCUAGCUCAACACAGCGUGUCAAAGAGUCAGUGGCUAGACUGCC [A4C G5U G22U U28A G30U U32A] here?
**A.** 0.04

**Q.** Which self-cleavage does the source give for GGCCGAGCUCAACACAGCGUGGCAAAGUAGCUGUGGCUAGACUGCG [A4C G29A C46G] here?
**A.** 0.03

**Q.** For GGCCGACCUCUACACAGCGUGGCAAAGUGGCUGUGGCUAGACUGCC [A4C G7C A11U], which self-cleavage is on record?
**A.** 0.02

**Q.** Which self-cleavage does the source give for GGCCGAGCUCAACACAGCGUGGCAAAGUGGAUGUGGCAAGACUGCC [A4C C31A U38A] here?
**A.** 0.09

**Q.** For GGCCGAGCUCAACACAGCGUGGCAAACUGCCUGUGGCUAGACUGCC [A4C G27C G30C], which self-cleavage is on record?
**A.** 0.11

**Q.** Which self-cleavage does the source give for GGCCGAAUUCAACACAGCGUUGCAAGGUGACUGUGGCUAGACUGCC [A4C G7A C8U G21U A26G G30A] here?
**A.** 0.53

**Q.** For GGCCGAUCUCAAUAAAGCGUGGCAAAGUGGCAGUGGCUAGACUGCC [A4C G7U C13U C15A U32A], which self-cleavage is on record?
**A.** 0.11

**Q.** Which self-cleavage does the source give for GGCCUAGAUCAACACAGCGUGGCAAAGUGGCUGUGGAUAGACUGCC [A4C G5U C8A C37A] here?
**A.** 0.04

**Q.** With GGCCGAUCUAAACACAGCGUGGCAAAAUGGCUGUGGCUAGACUGAC [A4C G7U C10A G27A C45A] as the variant, how does the self-cleavage read?
**A.** 0

**Q.** Which self-cleavage does the source give for GGCCGAGCUCAACACAGCGUGGCAAAGUAGCUGUGGCUACACUGCG [A4C G29A G40C C46G] here?
**A.** 0.12

**Q.** For GGCCGAGCUCAACACAGCUUGGCAAAGUGGCUUCGGCUAGACUGCC [A4C G19U G33U U34C], which self-cleavage is on record?
**A.** 0.05

**Q.** Which self-cleavage does the source give for GGCCGAGCUCAACACAGCGUGGCAAAGUGGCUGUGGGGAGACUGCU [A4C C37G U38G C46U] here?
**A.** 0.02

**Q.** For GGCCAAGCUCCACACAGCGUGGCAAAGUGGCUGUGUCUAGACUGCC [A4C G5A A11C G36U], which self-cleavage is on record?
**A.** 0.01
